# Laboratory results as given in the RNAGym collection of RNA variant scans (doi:10.7554/elife.90254).
# Read counts are not given, so values of variants with three or more changes are uncertain.
# B1: LINE1-mini (parent)
# chain: GGCAGAGCUCAACACAGCGUGGCAAAGUGGCUGUGGCUAGACUGCC
# Variants of: B1
# Assay: self-cleavage, relative activity (ratio to wild type); higher = more cleavage; in vitro, sequencing; the parent is a self-cleaving ribozyme
row,Variant,self-cleavage
1,GGGAGAGUUCAACACAGCGUGGCAAAGUGGCCGUGGCUAGACUGCC [C3G C8U U32C],0.14
2,GGGAGAGCUAAACACUGCGUGGCAAAGUGGCUGUGGCUAGAGUGCG [C3G C10A A16U C42G C46G],0.01
3,GGGAGAGCUAAACACAGCGUGGCAGAGUGGCUGUGGCUAGACUGCC [C3G C10A A25G],0.04
4,GGGAGAGCUAAACACAGCGUGGCAAUGUGGCACUGACUAGACUGCC [C3G C10A A26U U32A G33C G36A],0.01
5,GGGAGAGCUAAACAUAGCGUGGCAAAGUGGCUGUGGCUAGACUGCC [C3G C10A C15U],0.03
6,GGGAGAGCUAAACACAGCGUGGCAAAGUGGCUGUGGCUAGACUGUC [C3G C10A C45U],0.04
7,GGGAGAGCUAAACACAGCGUUGCAAAGUGGCUGUGGCUAGACUGCC [C3G C10A G21U],0.02
8,GGGAGAGCUAAACACAGCGUGGCAAAGUGCCUUUGGAUAGACUGCC [C3G C10A G30C G33U C37A],0.02
9,GGGAGAGCUGAACUCAGCGUGGCAAAGUGUCUGUGGCUAGACUGCC [C3G C10G A14U G30U],0.01
10,GGGAGAGCUGAACACAGCGUGGCAAAGUGGCUGUGGCUAGACUGAC [C3G C10G C45A],0.03
11,GGGAGAGCUGAACACAGCGUGGCAAACUGGCUGUGGCUAGACUGCC [C3G C10G G27C],0.06
12,GGGAGAGCUUAAUACAGCGUGGCAAAGUGGCUGUGGCUAGACUGCC [C3G C10U C13U],0.06
13,GGGAGAGCUUAACACAGCGUGUCAAAGUGGCUGGGGCUAGGCUGCC [C3G C10U G22U U34G A41G],0.04
14,GGGAGAGCUUAACACAGCGUGGCAAAGUGGCUUUGGCUAGAUUGCC [C3G C10U G33U C42U],0.03
15,GGGAGAGCUCAAAACAGCGUGGCAUAGUGGCUGUGGCUAGACUGGC [C3G C13A A25U C45G],0.08
16,GGGAGAGCUCAAAACAGCGUGGCAAAGUGGCUGUGGCUGGACUGCC [C3G C13A A39G],0.17
17,GGGAGAGCUCAAAACAGCGUGGCAAAGUGGCUGUGGCUAGACUGCA [C3G C13A C46A],0.48
18,GGGAGAGCUCAAAACAGCGUGGCAAAGUGGCUGUGGCUAAACUGCC [C3G C13A G40A],0.13
19,GGGAGAGCUCAAAACAGCGUGGCAAAGGGGCUGCGGCUAGACUGCC [C3G C13A U28G U34C],0.17

row,Variant,self-cleavage
1,GGGAGAGCUCAAGCCAGCGUGGCAAAGUGGCUGUGGCUAUACUGCU [C3G C13G A14C G40U C46U],0.04
2,GGGAGAGCUCAAGGCAGCGUGGCAAAGUGGCUAUGGCUAGUCUGCC [C3G C13G A14G G33A A41U],0.11
3,GGGAGAGCUCAAGACAGCGUGGCAAAGUGGCUGUGGCUUGACUGUC [C3G C13G A39U C45U],0.07
4,GGGAGAGCUCAAGACAGCCUGGCAAAGUGGCUGUGGCUGGACUGCC [C3G C13G G19C A39G],0.15
5,GGGAGAGCUCAAGACAGCGUGCCAAAGUGGCUGUGGCUAGCCUGCC [C3G C13G G22C A41C],0.02
6,GGGAGAGCUCAAGACAGCGUGGCAAACUGGCUGUGGCUUGACUGCC [C3G C13G G27C A39U],0.25
7,GGGAGAGCUCAAUACAGCGUGGCAAAGUGGCUGUGGCUAGACUUCC [C3G C13U G44U],0.06
8,GGGAGAGCUCAACAAAGGGUGGCAAAGUGGCUGUGGCUUGACGACC [C3G C15A C18G A39U U43G G44A],0.01
9,GGGAGAGCUCAACAAAGCGUGGCAAAGUGGCUGUGGUUAGACUGCC [C3G C15A C37U],0.13
10,GGGAGAGCUCAACAAAGCGUGGCAAAGUUGCUGUGGCUAGACUUCG [C3G C15A G29U G44U C46G],0.08
11,GGGAGAGCUCAACAAAGCGUGGCAAAGUGGCGGUGGCUAGACUGCC [C3G C15A U32G],0.04
12,GGGAGAGCUCAACAAAGCGUGGCAAAGUGGCUGUGGCAAGACUGCC [C3G C15A U38A],0.18
13,GGGAGAGCUCAACAGAGCGUGGCACUGUGGCUUUGGCUAGACUGCC [C3G C15G A25C A26U G33U],0.05
14,GGGAGAGCUCAACAGAGCGUGGCAAAGUGGCUGUGUCUAGACUGCC [C3G C15G G36U],0.09
15,GGGAGAGCUCAACAGAGCGUGGCAAAGGGGCUGUGGCUAGACUGCC [C3G C15G U28G],0.01
16,GGGAGAGCUCAACAGAGCGUGGCAAAGUGGCUGUGGCUAGACCGCC [C3G C15G U43C],0.05
17,GGGAGAGCUCAACAUAGCGUGGCAAAGUAUCUGUGGCUAGACUGCC [C3G C15U G29A G30U],0.08
18,GGGAGAGCUCAACAUAGCGUGGCAAAGUUGCUGUGGCUAGACUGCC [C3G C15U G29U],0.47
19,GGGAGAGCUCAACACAGAGUGGCCAAGGGGAUGUGGCUAUCCUGCC [C3G C18A A24C U28G C31A G40U A41C],0.03

row,Variant,self-cleavage
1,GGGAGAGCUCAACACAGGGUGCCAAAGUGGAUGUGGCUAGACUGCC [C3G C18G G22C C31A],0.04
2,GGGAGAGCUCAACACAGGGUGGCAAAGUGACGGUCGCUAGACUGCC [C3G C18G G30A U32G G35C],0.06
3,GGGAGAGCUCAACACAGCGUGGAAAUGUAGCUGUGGCUAGACUGCC [C3G C23A A26U G29A],0.83
4,GGGAGAGCUCAACACAGCGUGGAAAAGUCGAUGUGGCGAGACUGUC [C3G C23A G29C C31A U38G C45U],0.02
5,GGGAGAGCUCAACACAGCGUGGAAAAGUGGCAGUGGCUAGACUGCC [C3G C23A U32A],0.19
6,GGGAGAGCUCAACACAGCGUGGGAAAAUGGCUCUGGCUAGACUGCC [C3G C23G G27A G33C],0.04
7,GGGAGAGCUCAACACAGCGUGGUAAAGUCUCUGUGGCUAGACUGUC [C3G C23U G29C G30U C45U],0.04
8,GGGAGAGCUCAACACAGCGUGGCAAAGUGGAUGUGGUUAGACUGCC [C3G C31A C37U],0.21
9,GGGAGAGCUCAACACAGCGUGGCAAAGUGGGUGUGGGUAGACUGCC [C3G C31G C37G],0.04
10,GGGAGAGCUCAACACAGCGUGGCAAAGUGGGUGUGGUUAGACUGCC [C3G C31G C37U],0.28
11,GGGAGAGCUCAACACAGCGUGGCAAAGUGGUUGUGGGUAGACUGCC [C3G C31U C37G],0.05
12,GGGAGAGCUCAACACAGCGUGGCAAAGUGGCUGUGGCUAGAGUGGC [C3G C42G C45G],0.18
13,GGGAGAGCUCAACACAGCGUGGCAAAGUGGCUGUGGCUAGAGGGCC [C3G C42G U43G],0.07
14,GGGAAAGCUCGACACAGCGUGGCAAAGUGGCUGUGGCUAGACCGCC [C3G G5A A11G U43C],0
15,GGGAAAGCUCACCACAGCGUGGUAAGGUCGCUGUGGCUAGACUGCC [C3G G5A A12C C23U A26G G29C],0.01
16,GGGAAAGCUCAGCACAAAGUAGCAAAGUGGCUGUGGCUAGACUGCC [C3G G5A A12G G17A C18A G21A],0.01
17,GGGAAAACUCAACACAGCGUGGCAAAGUGGCUGUGGCUAGACUGCC [C3G G5A G7A],0.33
18,GGGACAGCUCAGCACAGCGUGGCAAAGUGGUUGUGGCUAGACUGCC [C3G G5C A12G C31U],0.05
